This note sets out measurements from the RNAGym collection of RNA variant scans (doi:10.1073/pnas.2313332121).

This sample is rich in variants without activity.

The chains are these.
B1: TPR 5TU (parent)
chain: GGAUCUUCUCGAUCUAACAAAAAAGACAAAUCUGCCACAAAGCUUGAGAGCAUCUUCGGAUGCAGAGGCGGCAGCCUUCGGUGGCGCGAUAGCGCCAACGUUCUCAACUAUGACACGCAAAACGCGUGCUCCGUUGAAUGGAGUUUAUCAUG

This data set covers variants of B1. In words: polymerase ribozyme fitness, log enrichment relative to wild type (log ratio); higher = more active; in vitro selection for triplet polymerase activity. The essentials: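 Streptavidin-bead capture of gel-excised extended constructs, followed by RT-PCR, closed a single triplicate in vitro selection round. That round began by annealing PCR-built, transcribed mutant libraries of each subunit of a heterodimeric triplet polymerase ribozyme with a biotinylated primer, the partner subunit and triplets, then incubating them frozen at −7 °C. After Illumina sequencing of inputs and outputs, genotypes needed ≥10 input reads and ≥1 read per output. Fitness is the base-2 logarithm of genotype enrichment over wild-type enrichment, using inverse-variance-weighted replicate averages.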
On to GGAUCUUCUCGAUCUAAUAAAAAAGACAAAUCUGCCACAAAGCUUGAGAGCAUCUUCGGAUGCAGAGGCGGCUGCCUUCGGUGGCGCGUUGGCGCCAACGUUCUCAACUAUGCCACGCAAAACGCGUGCUCCGUUGAAUGGAGUUUAUCAUG, for which the “polymerase ribozyme fitness (log ratio)” value is not above -4.2.

For GGAUCUUCUCGAUCUAAUAAAAAAGACAAAUCUGCCACAAAGCUUGAGAGCAUCUUGGGAAGCAGAGGCGGCAGCCUUCGGUGGCGUGUUAGCGCCAACGUUCUCAACUAUGACAUGGAAAGCGCGUGCUCCGUUGAAAGGAGUUUAUCAUG, the “polymerase ribozyme fitness (log ratio)” value was not above -4.2.

For the variant GGAUCUUCUCGAUCUAAUAAAAAAGAUCAAUCUGCCACAAAGCUUGAGAGCAUCUUCGGAUGCAGAGGCGGCAUCCUUCGGUGGCGCGAUAGCGCCAACUUUCUCAACUAUGACACGCAAAACGCGUGCUCCGUUGAAUGGAGGUUAUCAUC, the “polymerase ribozyme fitness (log ratio)” value is not above -4.2.

With GGAUCUUCUCGAUCUAAUAAAAAAGACAAAUCUGCCACAAAGCUUCAGAGCAUCGUCGGAUGCAGCGGCGGCAGCCUUCGGUGGCGCGAUAGCGCCAACGUUCUCAACUAUGACACGCAAAACGCGUGCUCCGUUGAAUGGAGUGUAUCAUG, the “polymerase ribozyme fitness (log ratio)” value was not above -4.2.

In the case of GGAUCUUCUCGAUCUAAUAAAAAAGACAAAUCUGCCACAAAGCUUGAGAGCAUCUUUGGAUGCAGAGGCGGCAGCCUUCGGUGGCGCAAUAGUGCCAACGUUCUCAACUAUGACACGCAAAACGCGUGCUCCGUUGAAUGGAGUUUAUCAUG, the “polymerase ribozyme fitness (log ratio)” value is not above -4.2.

Regarding GGAUCUUCUCGAUCUAAUAAAAAAGACAAAUCUGCCACAAAGCUUGAGAGUAUCUUCGGAUGCAGAGGCGGCAGCCUUCGGUGGCGAGAUAGCGCCAACGUUCUCAACUAUGACACGCAAAACGCGUGCUCCGUUGAAUGGAGUUUAUCAUG, the “polymerase ribozyme fitness (log ratio)” value is not above -4.2.

As to GGAUCUUCUCGAUCUAAUAAAAAAGACAAAUCUGCCACAAAGCUUGAGAGUAACUUCGGAUGCAGAGGCGGCAGCCUUCGGUAGCGCGAUAGCGCCAACGUUCUCAACUAUGACACGCAAAACGCGUGCUCCGUUGAAUGGAGUUUAUCAUG, the “polymerase ribozyme fitness (log ratio)” value is -3.04.

GGAUCUUCUCGAUCUAAUAAAAAAGACAAAUCUGCCACAAAGCUUGAGAGCAUCUUCGGAUGCAGAGGCGGCAGCCUUCGGUGGUGCGAUAGCGCCAACGUUCUCAACUAUGACACGCAAAACGCGUGCUCCGUUGAAUGGAGUUUAUCAUG: the “polymerase ribozyme fitness (log ratio)” value was -0.241.

Consider GGAUCUUCUCGAUCUAAUAAAAAAGACAAAUCUGCCACAAAGCUUGAGAGCAUCUUCGGAUGCACAGGCGGCAGCCUUCGGUGGCGCGAUAGCGCCAACGUUCUCAACUAUGACACGCAAAACGCGGGCUCCUUUGAAUGGAGUUUAUCAUG, for which the “polymerase ribozyme fitness (log ratio)” value is not above -4.2.

With GGAUCUUCUCGAUCUAAUAAAAAAUACAAAUCUGACACAAAGCUUGAGAGCAUCUUCGGAUGCAGAGGCGGCAGCCUUCGGUGGCGCGAUAGCGCCAACGUUCUCAACUAUGCCACGCCAAACGCGUGCUCCGUUGAAUGGAGUUUAUCAUG, the “polymerase ribozyme fitness (log ratio)” value was not above -4.2.

With GGAUCUUCUCGAUCUAAUAAAAAAGACAAAUCUGCCACAAAGCUUGAGAGCAUCUUCGUUUGCAGAGGCGGCAGCCUUCGGUGGCGCGAUAGCGCCAACGGUCUCAACUAUGACACGCAAAACGCGUGCUCCGUUGAAUGGAGUUUAUCAGG, the “polymerase ribozyme fitness (log ratio)” value was not above -4.2.

As for GGAUCUUCUCGAUCUAAUAAAAAAGACAAAUCUGCCAUAAAGCUUGAGCGCAUCUUCGGAUGCAGAGGCGGCAGCCUUCGGUGGCGCGAUAGGGCCAACGUUCUCAACUAUGACACGCAAAACGAGUGCUCCGUUGAAUCGAGUAUAUCAUG, the “polymerase ribozyme fitness (log ratio)” value was not above -4.2.

As for GGAUCUUCUCGAUCUAAUAAAAAAGACAAAUCUGCCACAAAGCUUGAGAGCAUCUUUGGAUGCAGAGGCGGCAGCCUUCGGUGGCACGAUAGCGCCAACGUUCUCAACUAUGACACGCAAAACGCGUGCUCCGUUGAAUGGAGUUUAUCAUG, the “polymerase ribozyme fitness (log ratio)” value was -1.67.

In the case of GGAUCUUCUCGAUCUAAUAAAAAAGACAAAUCUGCCACAAAGCUUGAGAGCAUAUUCGGAUGCGGAGGCGGCAGCCUUCGGUCGCGCGAUAGCGCCAACGUUCUCAACUAUGACACGCUAAACGCGUGCUCCGUUGAAUGGAGUUUCUCAUG, the “polymerase ribozyme fitness (log ratio)” value is not above -4.2.

Regarding GGAUCUUCUCGAUCUAAUAAAAAAGACAAAUCUGCCACAAACCUUGAGAGCAUCAUCGGAUGCGGAGGCGGCAGCCUUGGGUGGCGCGUUAGGGCCAACGUUCUCAACUAUGACACGCAAAACGCGUGCUCCGUUGAAUGGAGUUUAUCAUG, the “polymerase ribozyme fitness (log ratio)” value is not above -4.2.

As for GGAUCUUCUCGAUCUAAUAAAAAAGACAAAUCUGCCACAAAGCUUGAGAACAUCUUCGGAUGCAGAGGCGGCAGCCUUCGGUGACGCGAUAGCGCCAACGUUCGCAACUAUGACACGCAAAUCGCGUGCUCCUUUGAAUGCAGUUUAUCAUG, the “polymerase ribozyme fitness (log ratio)” value is not above -4.2.

In the case of GGAUCUUCUCGAUCUAAUAAAAAAGACAAAUCUGCCACAAAGCUUGAGAGCAUCUUCCGAUGCAGAGGCGGCAGCCUUCGGUGGCACGAUAGCGCCAACGUUCCCAACUAUGACACGCAAAACGCGUGCUCCGUUGAAUGGAGUUUAUCAUG, the “polymerase ribozyme fitness (log ratio)” value is -1.79.

Consider GGAUCUUCUCGAUCUAAUAAAAAAGAAAAAGCUGCCACAAAGCUUGAGAUCAUCUUCGGAUGCAGAGGCGGCAGCCUUCGGUGGCGAGAUAGCGCCAACGUUCUCAACUAUGACACGCAAAACGCGUGCUCCCUUGAAUGAAGGUUAUCAUG, for which the “polymerase ribozyme fitness (log ratio)” value was not above -4.2.

Take GGAUCUUCUCGAUCUAAUAAAAAAGACAAAUCUGCCACAAAGCUUGAGAACAACUUCGGAUGCAGAGGCGGCAGCCUCCGGUGGCUCGAUAGCGCCAACGUUCUCAACUAUGACGCACAAAACGCGUGCUCCGCUGAAUGGAGUUUAUCAUG: the “polymerase ribozyme fitness (log ratio)” value was not above -4.2.
